In this assay the test system is NCI-H322M lung. As to the kind of experiment: inhibition of tumour cell growth, NCI panel, 48 h.

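Growth conditions: 96-well plates. Treatment: test compound, 48 hours, 5 concentrations. Analysis: linear interpolation between bracketing concentrations; unreached endpoints set to highest concentration. Abbreviation: GI50, concentration required for 50% inhibition of growth. At the TGI there is no net growth.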

As for `COC(=O)c1c(C)nc(C)c(NO)c1-c1ccccc1C(F)(F)F`, the TGI is more than 100 µM.
Still for that read-out and setting: under `CN1C(=O)C(O)CC1c1cccc(C(F)(F)F)c1` (stereo unspecified) stands more than 100 µM.
The same measure, in the same setting: with `CCN(CC)c1ccc2cc(-c3nc4ccccc4c(=O)[nH]3)c(=N)oc2c1` the figure was more than 100 µM.
Compound `CCOC(=O)C1(C(F)(F)F)N=C(CC)OC(N2CCOCC2)=N1` (stereo unspecified) returned a TGI of more than 100 µM.
With `O=C(Cc1csc2nc(-c3ccc(Br)cc3)cn12)N/N=C/c1ccc(O)cc1`, the GI50 is 4.4 µM and the TGI was found to be 34.6 µM.
As for `Cc1cc(Cl)ccc1NS(=O)(=O)c1ccc(-c2cnc(C3CC3)o2)cc1`, the GI50 was 0.669 µM and the TGI was found to be 26.6 µM.
On to `Cc1csc(NC(=NCCN2CCOCC2)Nc2nc(C)cs2)n1`, for which the TGI was more than 100 µM.
Take `CN1CCN(c2nc(-c3ccncc3)nc3sc4c(c23)CCCCCC4)CC1`: the GI50 is 13.1 µM and the TGI amounted to 26.2 µM.
For `CO[C@]1(CN2CCN3CCCC[C@@H]3C2)/C=C/C[C@H](C)[C@@H](C)S(=O)(=O)NC(=O)c2ccc3c(c2)N(C[C@@H]2CC[C@H]21)C[C@@]1(CCCc2cc(Cl)ccc21)CO3`, the GI50 was 2.34 µM and the TGI was 8.18 µM.
With `Nc1ncnc2c1ncn2Cc1cccc(CCl)c1`, the TGI worked out at 38.2 µM.
The same measure, in the same setting: under `N=C1C=C(N)C(=O)c2[nH]c(=O)ccc21` stands 3.7 µM; under `O=C1C=CC(=O)c2c(Cl)ccc(O)c21`, 80.1 µM.
The same measure, in the same setting: with `COC(=O)CC(C(C(C)=O)C(=O)OCc1ccccc1)N1C(=O)OCC1c1ccccc1` (stereo unspecified) the figure was more than 100 µM; with `CCOC(=O)C(NC(=O)c1[nH]cnc1/N=N/N(C)C)C(C)C` (stereo unspecified), more than 100 µM; with `Cc1cc2c(c(=O)n1C)SCC2`, more than 100 µM.
The same measure, in the same setting: with `CC(=O)/C(=C\c1ccc(Cl)c(Cl)c1)C(=O)C(C)CN(C)C` (stereo unspecified) the figure was 13.9 µM; with `CC(=O)CC(=O)CCC(=O)O`, more than 100 µM.
Compound `Cc1ccc(NC(=O)CC(=O)N2N=C(N(CCC#N)c3cccc(C)c3)CC2c2ccccc2)cc1` (stereo unspecified) had a TGI of more than 100 µM.
The same measure, in the same setting: under `CN(C)C(=S)Oc1ccc2ccc(=O)oc2c1` stands more than 100 µM; under `CSc1ccc(/C=C2\N=C(c3ccccc3)N(/N=C/c3cc4cc(C)ccc4nc3Cl)C2=O)cc1`, more than 100 µM; under `Cc1nc(N)nc2ccccc12`, more than 100 µM.
For the compound `COc1ccc(-c2cc(C(O)C3CCCCN3)c3ccccc3n2)cc1` (stereo unspecified), the TGI came to 21.1 µM.

The values above are taken from PubChem BioAssay (NCI).
